In the RNAGym collection of RNA variant scans (doi:10.1093/nar/gkz1192):
Read counts are not given, so values of variants with three or more changes are uncertain.

B1: CPEB3 Ribozyme (parent)
chain: UAACAGGGGGCCACAGCAGAAGCGUUCACGUCGCAGCCCCUGUCAGAUUCUGGUGAAUCUGCGAAUUCUGCUGUAUAUCUC

Variants of: B1
Assay: self-cleavage, relative activity (ratio to wild type); higher = more cleavage; in vitro, sequencing
Method in brief: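 CPEB3 self-cleaving ribozyme mutant libraries were made by rounds of error-prone PCR, barcoded, and transcribed in vitro with T7 RNA polymerase for 5 hours at 37°C. Cleavage occurred during transcription and a 15 min DNase I step before EDTA stop. RNAs were reverse transcribed with template switching and Illumina-sequenced, with DNA sequencing mapping barcodes to variants. Relative activity is the variant's cleaved/total read fraction divided by wild type's (minimum 5 reads), averaged across three batches.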

Variant | self-cleavage
G33A U43C A47G A64G | 0.19
C32A A35U U43C U69C U72A | 0.06
C32U U49C U51A U54C | 0.13
U31G U49A U69C | 0.14
U31C U49C U69C U76A | 0.17
C34G U51C C81A | 0.18
G33A U43C U60C U80C | 0.19
G33A A56G U72A | 0.12
C32A U43C U48C U78A | 0.15
U31C U51A U60C | 0.13
C32G A45G U48C U69C G70C U78C | 0.09
C32A C40U U51C A65G | 0.09
U31C U48C U51A | 0.21
G33A C34U U43A U49C U72C U78C | 0.05
C32U U54C A56G A75G | 0.12
G33A A35G A57G U80C | 0.37
G33A U41C A47G | 0.33
G33U U48C U72A | 0.11
C32A A47G U60C | 0.38
U31C U51C U67A | 0.31
G33A A35U U66C | 0.25

Variant | self-cleavage
C34G U76C A77G | 0.07
G33A U51G C62G U66C U69A | 0.27
A35C U67A A77U | 0.43
U31C U58A U74C | 0.37
C32U U41A U48C U51C | 0.18
C32A U60A U76C | 0.37
C34G U43G A57U | 0.09
A35G A45C U60G C71A | 0.28
C32A U41C A56G A57U G70A U74C | 0.1
C32U U43C A45U U48A U80C | 0.08
A35C C38A U41C A65G U69A C71G | 0.07
A35C G55C G70C U78C C79U | 0.14
G33A U48C U60C U69C | 0.09
C34A A35C A57G C62U U76G | 0.03
C32A C38G U58G | 0.1
U31C U48C U60C | 0.2
C32U U41C A56G | 0.47
G33A U41A G53U G63A A64G | 0.11
U31C U48C U51A A56G | 0.1
G33C A35U G70A U72A | 0.15
G33A A45G U58A | 0.07

Variant | self-cleavage
G33U A35G A64G U66C | 0.1
U31C U72C A75C | 1.11
U31C U48C U51C U54A U58C A64U A77G | 0.1
U31C U60C G73A | 0.6
U31G U54C U72C | 0.89
C34G U41C U72C | 0.06
C34A U51C G61C A77U | 0.18
C34U U41A U60A | 0.21
G33A U54G A64U | 0.06
U31C U48C U72A | 0.46
G33A A35G U51G A56U | 0.15
G33A C59U U80C | 0.15
U31C U58A A65G U72A U80C | 0.26
U31C U48G U74C | 0.51
U31G U49A U72A U78C | 0.08
G33A A57G A64U | 0.09
C32A U43C A45G U51C U66C U78C U80A | 0.06
U31G A35G A45G | 1.21
U31C U54C U58C U74G | 0.3
C34U U41A C59A | 0.14
A35C U49C U74C U78C | 0.27

Variant | self-cleavage
G33A U54G G63U | 0.23
U31C U69G U72A | 0.31
U31C U49G U54A G55C | 0.42
U31C U72C A77U | 1.2
U31C U43C U66C | 0.46
C34G U43A U48C A64G U67C | 0.11
C32U U43C A45U U51C U69C U78C | 0.09
U31C U54C U80C | 1.04
C34G A45G U60C | 0.3
A35C U43C A77U | 0.56
U31C U54A U60A | 0.24
U31C U60C A65U | 0.12
G33A A56G A64G U72C | 0.15
C32U C37A U51C C62G | 0.27
C32A U41A U54A U58C A65G A77U | 0.07
C32G U43C A57G | 0.09
C32A C40A A57G | 0.1
G33U U41A U51C G53C U76C | 0.15
G33A A47G A64G U67C | 0.13
C34G A56G A64G | 0.29
